For 9 molecules, IC50 and selectivity ratio results are on record in paper PMC4535766, “Antiprotozoal Activity Profiling of Approved Drugs: A Starting Point toward Drug Repositioning” (PLoS ONE, 2015).

The subject of data set [1] is T. cruzi, strain Tulahuen C4, intracellular amastigotes. The data set can be described thus: microbe, parasite or virus in culture. As to conditions: Trypanosoma cruzi. As for the experimental part: (§1) Drug stock solutions (10mg/ml) were in DMSO (100%). […] Selectivity index (SI) was calculated as IC50 L6 cells/IC50 parasite.
Data set [2] concerns T. b. rhodesiense strain STIB 900, trypomastigotes. The experiment in a line: In vitro activity against T. b. rhodesiense, serial drug dilution assay. As to conditions: for IC50: Trypanosoma brucei. How it is done:
as §1

Another data set concerns P. falciparum strain K1. The data set can be described thus: In vitro activity against P. falciparum, serial drug dilution assay. As to conditions: Plasmodium falciparum. As for the experimental part: as §1
For data set [3], the system named is axenic amastigotes of L. donovani, strain MHOM-ET-67/L82. The experiment in a line: In vitro activity against L. donovani axenic amastigotes, serial drug dilution assay. In kind it is cell-based. The following applies: Leishmania donovani. As for the experimental part:
as §1

Data set [4] has as its system intracellular amastigotes of L. donovani strain MHOM-ET-67/L82. The data set can be described thus: Activity against Leishmania donovani intracellular amastigotes in mouse peritoneal macrophages. The following applies: Peritoneal macrophage. As for the experimental part: After 24 h 1.2 x 10^5 amastigote L. donovani in 100 μl were added. The amastigotes were taken from an axenic culture grown at pH 5.4. Four hours later, the medium containing free amastigote forms was removed and replaced by fresh medium. The next day the medium was replaced by medium with or without a serial drug dilution of seven 3-fold dilution steps covering a range from 30 to 0.04 μg/ml. Parasite growth in the presence of the drug was compared to control wells. After 96 h of incubation, the medium was removed and the slides fixed with methanol for 10 min followed by staining with a 10% Giemsa solution. Infected and non-infected macrophages were counted for the control cultures and those exposed to the serial drug dilutions. The infection rates were determined. The results were expressed as a percentage reduction in parasite burden compared to control wells, and the IC50 was calculated by linear regression analysis. The collection of mouse peritoneal macrophages was done at the Swiss Tropical and Public Health Institute (Basel) according to the rules and regulations for the protection of animal rights ("Tierschutzverordnung") of the Swiss "Bundesamt für Veterinärwesen".

[5] abbreviates: axenic amastigotes, strain MHOM-ET-67/L82, means of two independent assays, read-out: IC50 L. don. axen.
Setting [6] is: L. donovani axenic amastigotes, read-out: L. don. axen. IC50.
[7] abbreviates: 96 h, read-out: IC50 L. don. intracell.

Counter-ions that a name gives are not always drawn. Like-named read-outs stand apart in the source and are kept apart here.

Broadly, the IC50 is the point on the concentration scale where inhibition reaches its midpoint. On to `CNCCC(Oc1ccc(C(F)(F)F)cc1)c1ccccc1` (stereo not shown) [Fluoxetine], for which the IC50 was found to be 19.1 µM in data set [1] (read-out: IC50 T. cruzi); 2.01 µM in data set [2] (read-out: IC50 T. b. rhod.); 1.21 µM with P. falciparum strain K1 (K1, read-out: IC50 P. falc. K1).
On to `Clc1ccccc1C(c1ccccc1)(c1ccccc1)n1ccnc1` [Clotrimazole], for which the IC50 in data set [3] (setting [5]) turned out to be 2.23 µM; in data set [2] (read-out: IC50 T. b. rhod.) it was 23.7 µM; in the data set with P. falciparum strain K1 (K1, read-out: IC50 P. falc. K1) it was 0.11 µM.
Take `CN(C)CCCN1c2ccccc2CCc2ccc(Cl)cc21` [Clomipramine]: the IC50 in data set [1] (read-out: IC50 T. cruzi) worked out at 20.3 µM; in data set [3] (setting [5]), 75.7 µM; in data set [2] (read-out: IC50 T. b. rhod.) it was 2.06 µM; in the data set with P. falciparum strain K1 (K1, read-out: IC50 P. falc. K1), 1.3 µM.
On to `CCN(CC)CCOc1ccc(C(=C(Cl)c2ccccc2)c2ccccc2)cc1` [Clomiphene], for which the IC50 in data set [1] (read-out: T. cruzi IC50) was found to be 11.5 µM; in data set [3] (setting [6]), 21.6 µM; in data set [2] (read-out: T. b. rhod. IC50) it was 6.21 µM; with P. falciparum strain K1 (K1, read-out: P. falc. IC50), 1.37 µM.
On to `Clc1ccc2c(c1)C(N1CCNCC1)=Nc1ccccc1O2` [Amoxapine], for which the half-maximal inhibitory concentration (IC50) in data set [1] (read-out: IC50 T. cruzi) was 17.9 µM; in data set [2] (read-out: IC50 T. b. rhod.), 1.87 µM; in the data set with P. falciparum strain K1 (K1, read-out: IC50 P. falc. K1), 1.14 µM.
Regarding `CSc1ccc2c(c1)N(CCC1CCCCN1C)c1ccccc1S2` (stereo not shown) [Thioridazine], the IC50 was 5.83 µM in data set [1] (read-out: T. cruzi IC50); more than 7.74 µM in data set [4] (read-out: L. don. intracell IC50); 22.4 µM in data set [3] (setting [6]); 0.53 µM in data set [2] (read-out: IC50 T. b. rhod.); 1.07 µM in the data set on P. falciparum strain K1 (K1, read-out: P. falc. IC50). In addition, the selectivity ratio in data set [2] (rat, Selectivity index: IC50 Cytotoxicity L6/ IC50 T. b. rhodesiense) turned out to be 10.
Turning to `OCCN1CCN(CCCN2c3ccccc3Sc3ccc(C(F)(F)F)cc32)CC1` [Fluphenazine], the IC50 in data set [1] (read-out: IC50 T. cruzi) came to 13 µM; in data set [3] (setting [5]) it was 46.7 µM; in data set [2] (read-out: IC50 T. b. rhod.), 2.03 µM.
Turning to `Clc1ccc(COC(Cn2ccnc2)c2ccc(Cl)cc2Cl)cc1` (stereo not shown) [Econazole (Nitrate salt), Econazole], the IC50 in data set [4] (setting [7]) stood at 14 µM; in data set [3] (setting [5]), 6.15 µM; in data set [2] (read-out: IC50 T. b. rhod.), 41.7 µM; in the data set with P. falciparum strain K1 (K1, read-out: IC50 P. falc. K1) it was 0.32 µM.
Regarding `Clc1ccc(COC(Cn2ccnc2)c2ccc(Cl)cc2Cl)c(Cl)c1` (stereo not shown) [Miconazole (Nitrate salt), Miconazole], the IC50 in data set [4] (setting [7]) was 10.8 µM; in data set [3] (setting [5]) it was 4.39 µM; in data set [2] (read-out: IC50 T. b. rhod.) it was 36.6 µM; with P. falciparum strain K1 (K1, read-out: IC50 P. falc. K1), 0.49 µM.
